# Experimental data from article PMC4336329 (PLoS ONE, 2015).
# The whole screen tested about 310,000 compounds, of which about 14,000 (4.5%) showed an effect of 50% or more. The effect is printed as a negative number. This is one part of the list.
# Molecular target: human ether-à-go-go-related gene (hERG) potassium channel (human, UniProt Q12809)
# Assay: primary screen, population patch clamp on CHO cells stably expressing hERG
# 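Note: peak tail current of the secondary pulse compared with the same well before compound.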
# Chain of human ether-à-go-go-related gene (hERG) potassium channel (Q12809 whole entry, looked up): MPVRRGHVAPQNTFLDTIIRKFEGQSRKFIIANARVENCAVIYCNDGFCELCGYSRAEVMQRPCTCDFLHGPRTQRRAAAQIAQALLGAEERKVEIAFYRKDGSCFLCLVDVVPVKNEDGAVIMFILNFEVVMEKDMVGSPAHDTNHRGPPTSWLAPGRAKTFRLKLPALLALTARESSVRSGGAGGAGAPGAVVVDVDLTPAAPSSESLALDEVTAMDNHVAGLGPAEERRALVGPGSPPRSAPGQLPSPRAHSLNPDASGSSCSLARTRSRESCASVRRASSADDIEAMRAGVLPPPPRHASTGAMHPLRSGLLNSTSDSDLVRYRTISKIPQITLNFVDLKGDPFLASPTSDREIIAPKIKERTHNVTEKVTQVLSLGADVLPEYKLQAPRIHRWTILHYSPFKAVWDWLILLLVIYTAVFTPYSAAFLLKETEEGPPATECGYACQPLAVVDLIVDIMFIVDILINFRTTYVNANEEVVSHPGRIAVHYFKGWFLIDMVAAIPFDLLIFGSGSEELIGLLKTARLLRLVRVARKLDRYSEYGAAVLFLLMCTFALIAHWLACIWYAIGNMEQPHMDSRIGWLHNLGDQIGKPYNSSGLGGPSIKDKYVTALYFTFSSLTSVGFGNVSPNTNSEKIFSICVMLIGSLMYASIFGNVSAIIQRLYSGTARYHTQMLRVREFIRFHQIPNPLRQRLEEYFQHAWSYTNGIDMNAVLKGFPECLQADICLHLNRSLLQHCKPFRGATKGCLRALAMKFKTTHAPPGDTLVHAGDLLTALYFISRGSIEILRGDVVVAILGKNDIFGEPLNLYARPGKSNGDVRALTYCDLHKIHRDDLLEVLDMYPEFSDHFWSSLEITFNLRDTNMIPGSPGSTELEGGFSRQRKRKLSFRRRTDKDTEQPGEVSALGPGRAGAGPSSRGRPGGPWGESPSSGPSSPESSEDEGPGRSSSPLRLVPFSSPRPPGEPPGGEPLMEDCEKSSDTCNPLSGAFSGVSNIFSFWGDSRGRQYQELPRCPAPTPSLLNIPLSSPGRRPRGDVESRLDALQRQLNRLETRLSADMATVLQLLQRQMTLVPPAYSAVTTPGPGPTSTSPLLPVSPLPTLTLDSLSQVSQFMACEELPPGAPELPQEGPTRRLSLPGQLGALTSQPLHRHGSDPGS
row,Structure (SMILES),"hERG current change (%, negative = inhibition) at 10uM [%]"
1,CCN1CCN(CC(=O)n2c3c(c4ccccc42)CC(C)CC3)CC1 (centres unmarked),-23.9
2,COc1cc(/C=C2\C(=O)ON=C2c2ccccc2)cc(OC)c1OC,25.6
3,O=C(Nc1cccs1)N1CCN(c2ncccn2)CC1,7.18
4,O=C(COc1ccc(S(=O)(=O)N2CCOCC2)cc1)NCCCn1ccnc1,-17.3
5,Cc1ccc(OCCC(=O)OCC(=O)N2CC(=O)Nc3ccccc32)cc1,4.57
6,O=C(NCc1ccc2c(c1)OCO2)c1cc(COc2c(F)cccc2F)on1,-4.93
7,c1ccc(-c2cc3c(NCC4COc5ccccc5O4)ncnc3s2)cc1 (centres unmarked),10.6
8,O=C1/C(=C/N(C(=O)c2ccco2)c2ccc(Br)cc2)Sc2ccccc21,-7.76
9,Cc1ccc(CNC(=O)CS(=O)Cc2nc(-c3cccs3)oc2C)cc1 (centres unmarked),-30.3
10,COC(=O)c1ccc(CSc2nc3ccccc3c(=O)n2-c2cccc(OC)c2)o1,12.8
11,O=C(/C=C/c1ccccc1)N(Cc1cccs1)C1CCS(=O)(=O)C1 (centres unmarked),-30.3
12,COc1ccccc1CN1C(=O)[C@@H]2C(CC(N)=O)NC3(C(=O)Nc4c3ccc(Cl)c4C)[C@@H]2C1=O (some centres unmarked),-4
13,C=CCn1c(-c2cccs2)nc2ccccc21,3.12
14,O=C(Nc1ccccc1)OCc1ccccn1,10.8
15,Cc1cccc(OCc2nnc(SC(C)C(=O)O)n2Cc2ccccc2)c1 (centres unmarked),12.5
16,O=C(CSc1nnnn1-c1ccc2c(c1)OCO2)NCc1ccccc1,-16.9
17,CC(C)CNC(=O)C1CCCN1S(=O)(=O)c1ccc(Cl)cc1 (centres unmarked),1.04
18,Cc1ccc(OCc2nnc(SCC(=O)N3c4ccccc4Sc4ccc(Cl)cc43)o2)cc1,6.06
19,COc1ccc(NC(=O)CN(C)CC(=O)Nc2ccc(Cl)cc2F)cc1,-10.6
20,CN(Cc1nccs1)C(=O)c1cc(COc2cccc3cnccc23)on1,-6.13
21,COc1cccc(C(O)CC(N)=O)c1 (centres unmarked),-0.0887
22,O=C(O)C1CC(O)CN1C(=S)Nc1ccccc1 (centres unmarked),24.1

row,Structure (SMILES),"hERG current change (%, negative = inhibition) at 10uM [%]"
1,C=C(C)C1CC=C(C)/C(=N/NC(=O)c2ccoc2C)C1 (centres unmarked),-15.5
2,CC(Cc1ccc(O)c(O)c1)C(C)Cc1ccc(O)c(O)c1 (centres unmarked),9.42
3,Cc1ccc(CNS(=O)(=O)c2ccc3c(c2)OCCO3)cc1,-5.68
4,CCCCCC(=O)O[C@]1(C(C)=O)CC[C@H]2[C@@H]3CCC4=CC(=O)CC[C@]4(C)[C@H]3CC[C@@]21C,15.5
5,CCOC(=O)/C(C#N)=C/c1ccc(OCC(=O)Nc2cc(C)ccc2C)c(OC)c1,15.3
6,Cc1ccc2c(c1)nc(NCCO)n2C.Cl,2.51
7,CCOC(=O)c1c(NC(=O)Cn2nnc(-c3ccccc3Cl)n2)sc(C)c1C,13.8
8,O=C(Nc1cc(C(F)(F)F)ccc1Cl)c1ccncc1,2.63
9,CC(=O)c1ccc(Nc2c3c(nc4ccccc24)CCCC3)cc1,-53.3
10,COc1ccc(N2C(=NC(=O)CCCc3ccccc3)SC3CS(=O)(=O)CC32)cc1 (centres unmarked),19.4
11,CC(C)CCN1CC(=O)N2[C@@H](Cc3c([nH]c4ccccc34)C2(C)C)C1=O,5.85
12,O=C(N=Nc1c(O)[nH]c2ccccc12)c1cccs1,30.9
13,C[n+]1c(-c2ccccc2)cc(-c2ccc(Cl)cc2)cc1-c1ccccc1.[O-][Cl+3]([O-])([O-])[O-],-84.1
14,CC1CN(S(=O)(=O)c2ccc(Cl)c(C(F)(F)F)c2)CC(C)O1 (centres unmarked),6.26
15,CCn1c(SCC(=O)NC(C)(C)C)nnc1-c1ccccn1,17.1
16,COc1ccc(-n2c(=S)[nH]c3cc(C(=O)NCc4ccc(F)cc4)ccc3c2=O)c(OC)c1,8.03
17,CN1Cc2cc(C(=O)c3cc(Cl)cc(CSc4ncccn4)c3O)cnc2NC1=O,4.17
18,CCN(CC(=O)Nc1c(F)cccc1F)C(=O)c1ccc2c(c1)OCCO2,6.51
19,COc1cc(-c2cc(C(=O)NCc3ccc(S(N)(=O)=O)cc3)c3ccccc3n2)cc(OC)c1OC,12.1
20,Cc1cccc(CN2CCC(N3CC(C)OC(C)C3)CC2)c1.O=C(O)C(=O)O (centres unmarked),17.1
21,CCSc1nc2ccccc2c(=O)n1Cc1ccc(F)cc1,14
22,Cc1ccc(CNC(=O)CCC2CCCN(Cc3c(C)nn(C(C)C)c3C)C2)o1 (centres unmarked),-16.6

row,Structure (SMILES),"hERG current change (%, negative = inhibition) at 10uM [%]"
1,COc1ccc(C(=O)Nc2ccnn2C2CCN(C(=O)c3cccnc3)CC2)cc1,12.3
2,CCOC(=O)c1ccc(OC(=O)CCCCCN=C(N)N)cc1.CS(=O)(=O)O,-4.82
3,Nc1ccccc1-c1nnc(SCc2ccccc2F)[nH]c1=O,9.95
4,COC(=O)c1cc2occc2n1Cc1cccc(C)c1,8.35
5,O=C(N/N=C/c1cccc(C(F)(F)F)c1)c1ccc(O)cc1,31.4
6,CCc1ccc(C(=O)N2CCN(c3ccc(NC(=O)c4ccco4)cc3)CC2)cc1,-16.6
7,Cc1ccc(C(=O)NCc2ccco2)o1,24
8,COc1ccc(CCNC(=O)COC(=O)Cn2cnc3ccccc32)cc1OC,26.1
9,COc1ccc(S(=O)(=O)N2CCc3ccccc32)cc1C(=O)NCCc1ccccn1,-24.2
10,Cc1nnc2n1N=C(c1ccc(F)cc1F)CS2,-3.32
11,COc1ccc(C2/C=C\CN(C(=O)OCc3ccccc3)CC(=O)N2Cc2ccc(F)cc2)cc1 (centres unmarked),-26
12,CCCN1C(=O)/C(=C2/C=Cc3ccccc3N2CC)SC1=S,14.6
13,CCCCc1cc(=O)oc2cc(OC(C)C(=O)NCC3CCC(C(=O)O)CC3)c(Cl)cc12 (centres unmarked),5.76
14,CCOC(=O)c1ccccc1NC(=O)COC(=O)c1ccc(C)c(S(=O)(=O)N2CCOCC2)c1,-17.5
15,O=C(CCN1C(=O)/C(=C/c2ccccc2Cl)SC1=S)Nc1ccccc1C(=O)O,19.9
16,O=C(CSc1cccc2cccnc12)Nc1cc(C(=O)O)cc(C(=O)O)c1,23.1
17,Cc1ccc(NC(=O)CSc2nnc(-c3cnccn3)n2Cc2ccco2)cc1C,-17.6
18,O=S(=O)(Nc1cccc(-c2ccc3nncn3n2)c1)c1cccc(F)c1,-38.2
19,COc1cccc(/C=N/NC(=O)CN(C)S(=O)(=O)c2ccccc2)c1OC,-10.6
20,Cc1ccc(C)c(S(=O)(=O)NCc2cccnc2)c1,5.24
21,COC(=O)c1[nH]c2ccccc2c1NC(=O)CN1CCN(Cc2ccc3c(c2)OCO3)CC1,-73.7
22,COc1ccc(CNC(=S)Nc2cc(C)cc(C)c2)cc1,2.91

row,Structure (SMILES),"hERG current change (%, negative = inhibition) at 10uM [%]"
1,Cc1oc(C)c2c(=O)ccc3c(c12)OC(N)=C(C#N)C3c1ccccc1 (centres unmarked),12
2,C/C(=N\OC(=O)Nc1ccccc1)c1cnn(-c2cc(C(F)(F)F)cc(C)n2)c1C,5.54
3,CC(=O)c1ccc(N2CCN(S(=O)(=O)c3cccc(S(=O)(=O)N4CCOCC4)c3)CC2)cc1,-6.92
4,CN1CCN(NC(=O)CN2C(=O)/C(=C/c3ccccc3Cl)SC2=S)CC1,-18.4
5,O=C1C=C(c2ccccc2)C(O)(c2ccccc2)C1 (centres unmarked),3.4
6,Cc1cc(C)c(NC(=O)NC(=O)C(Cl)(Cl)Cl)c(C)c1,23.5
7,CN1C(=O)Cc2cc(S(=O)(=O)NCc3c(F)cccc3Cl)ccc21,10.4
8,CC(=O)Nc1ccc(NC(=O)c2sc3nc4c(c(-c5ccc(C)cc5)c3c2N)CCC4)cc1,14.1
9,Cc1c(S(=O)(=O)N2CCC(C)CC2)c(=O)n(C)c(=O)n1C,-0.636
10,O=C(NCc1cccs1)c1ccc(CS(=O)Cc2cccc(Cl)c2)o1 (centres unmarked),-39.6
11,NCCSc1c(-c2ccc(F)cc2)[nH]c2ccccc12,-37.9
12,COC(=O)Cc1csc(Nc2ccccc2Cl)n1,-5.19
13,Cc1cccc(C(=O)NNC(=O)Nc2ccccc2)c1,15.3
14,Cc1ccc(C)c(S(=O)(=O)N2CCCCC2CCNC(=O)C(=O)NC2CCCC2)c1 (centres unmarked),-33.2
15,CCc1nc(NCCCCCO)c2nnn(Cc3ccccc3F)c2n1,-28.8
16,c1ccc2c(c1)Nc1cc3ccccc3cc1S2,8.83
17,CC(=O)c1c(OC(=O)c2ccc(C)cc2)c2ccccc2n1C,0.631
18,CC(C)CN1C(=O)c2ccc(C(=O)Nc3ccc(OCC(=O)O)cc3)cc2C1=O,5.95
19,CC(=O)Nc1ccc(C(=O)CSc2nnc(-c3ccc(O)cc3)n2CC2CCCO2)cc1 (centres unmarked),12.7
20,CC1=NN2C(=N)/C(=C\c3ccc(SCc4ccccc4)o3)C(=O)N=C2S1,-4.06
